# Reference: the supplement of paper PMC8728848
# This is one part of the list.
# B1: rAAL-H59Q (Agrocybe aegerita), Q6WY08 (protein)
# chain: MQGVNIYNISAGTSVDLAAPVTTGDIVTFFSSALNLNAGAGNPNNTTLNLFAENGAYLLQIAFRLQENVIIFNSRQPDGPWLVEQRVSDVANQFAGIDGKAMVTVFDHGDKYQVVINEKTVIQYTKQISGLTLSLSYNATEETSIFSTVVEAVTYTGLALEHHHHHH
# What was measured:
# Test in all cases: glycan array binding signal (z-score within array); higher = stronger binding
# Settings in all cases: glycan notation: IUPAC condensed, linker removed; mutation: H59Q
# [1] = biological target: Gal(b1-4)GlcNAc(b1-3)Gal(b1-4)GlcNAc(b1-3)[Gal(b1-4)GlcNAc(b1-3)Gal(b1-4)GlcNAc(b1-6)]GalNAc
# In short: (§1)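 Glycan array data came from 3228 arrays in the Consortium for Functional Glycomics database, and only arrays with an available protein sequence were kept. Glycan names were put into IUPAC-condensed notation, and columns mapping to the same glycan were averaged. The binding signal is a within-array Z-score, averaged across arrays of one protein sequence run at different concentrations or buffers and across linkers. A negative Z-score can be read as non-binding.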
# [2] = biological target: Gal(b1-4)GlcNAc(b1-3)Gal(b1-4)GlcNAc(b1-6)[Gal(b1-3)]GalNAc
# In short: as §1
# [3] = biological target: Gal(b1-4)GlcNAc(b1-3)Gal(b1-4)[Fuc(a1-3)]GlcNAc(b1-3)Gal(b1-4)[Fuc(a1-3)]GlcNAc
# In short: as §1
# [4] = biological target: Gal(b1-4)GlcNAc(b1-3)GalNAc
# In short: as §1
# [5] = biological target: Gal(b1-4)GlcNAc(b1-3)[Fuc(a1-3)GlcNAc(b1-6)]Gal(b1-4)Glc
# In short: as §1
# [6] = biological target: Gal(b1-4)GlcNAc(b1-3)[Gal(b1-4)GlcNAc(b1-6)]Gal(b1-4)GlcNAc
# In short: as §1
# [7] = biological target: Gal(b1-4)GlcNAc(b1-3)[GlcNAc(b1-6)]Gal(b1-4)GlcNAc
# In short: as §1
# [8] = biological target: Gal(b1-4)GlcNAc(b1-6)Gal(b1-4)GlcNAc
# In short: as §1
# [9] = biological target: Gal(b1-4)GlcNAc(b1-6)GalNAc
# In short: as §1
# [10] = biological target: Gal(b1-4)GlcNAc(b1-6)[Gal(b1-3)]GalNAc
# In short: as §1
# [11] = biological target: Gal(b1-4)GlcNAc(b1-6)[Gal(b1-4)GlcNAc(b1-3)]GalNAc
# In short: as §1
# Gal(b1-4)GlcNAc6P = biological target: Gal(b1-4)GlcNAc6P
# In short: as §1
# Gal(b1-6)Gal = biological target: Gal(b1-6)Gal
# In short: as §1
# Gal3S(b1-3)GalNAc = biological target: Gal3S(b1-3)GalNAc
# In short: as §1
# Gal3S(b1-3)GlcNAc = biological target: Gal3S(b1-3)GlcNAc
# In short: as §1
# [12] = biological target: Gal3S(b1-3)[Fuc(a1-4)]GlcNAc
# In short: as §1
# Gal3S(b1-4)Glc = biological target: Gal3S(b1-4)Glc
# In short: as §1
# Gal3S(b1-4)Glc6S = biological target: Gal3S(b1-4)Glc6S
# In short: as §1
# Gal3S(b1-4)GlcNAc = biological target: Gal3S(b1-4)GlcNAc
# In short: as §1
# [13] = biological target: Gal3S(b1-4)[Fuc(a1-3)]Glc6S
# In short: as §1
# [14] = biological target: Gal3S(b1-4)[Fuc(a1-3)]GlcNAc
# In short: as §1
# [15] = biological target: Gal3S(b1-4)[Fuc(a1-3)]GlcNAc6S
# In short: as §1
# Gal3S4S(b1-4)GlcNAc = biological target: Gal3S4S(b1-4)GlcNAc
# In short: as §1
# Gal3S6S(b1-4)GlcNAc = biological target: Gal3S6S(b1-4)GlcNAc
# In short: as §1
# Gal3S6S(b1-4)GlcNAc6S = biological target: Gal3S6S(b1-4)GlcNAc6S
# In short: as §1
# Gal4S(b1-4)GlcNAc = biological target: Gal4S(b1-4)GlcNAc
# In short: as §1
# Gal4S6S(b1-4)GlcNAc = biological target: Gal4S6S(b1-4)GlcNAc
# In short: as §1
# Gal6P(b1-4)GlcNAc = biological target: Gal6P(b1-4)GlcNAc
# In short: as §1
# Gal6S(b1-3)GlcNAc = biological target: Gal6S(b1-3)GlcNAc
# In short: as §1
# Gal6S(b1-3)GlcNAc6S = biological target: Gal6S(b1-3)GlcNAc6S
# In short: as §1
# Gal6S(b1-4)Glc = biological target: Gal6S(b1-4)Glc
# In short: as §1
# Gal6S(b1-4)Glc6S = biological target: Gal6S(b1-4)Glc6S
# In short: as §1
# Gal6S(b1-4)GlcNAc = biological target: Gal6S(b1-4)GlcNAc
# In short: as §1
# Gal6S(b1-4)GlcNAc6S = biological target: Gal6S(b1-4)GlcNAc6S
# In short: as §1
# GalNAc(a1-3)Gal = biological target: GalNAc(a1-3)Gal
# In short: as §1
# GalNAc(a1-3)GalNAc = biological target: GalNAc(a1-3)GalNAc
# In short: as §1
# [16] = biological target: GalNAc(a1-3)GalNAc(b1-3)Gal(a1-4)Gal(b1-4)Glc
# In short: as §1
# [17] = biological target: GalNAc(a1-3)GalNAc(b1-3)Gal(a1-4)Gal(b1-4)GlcNAc
# In short: as §1
# GalNAc(b1-3)Gal = biological target: GalNAc(b1-3)Gal
# In short: as §1
# [18] = biological target: GalNAc(b1-3)Gal(a1-4)Gal(b1-4)GlcNAc
# In short: as §1
# [19] = biological target: GalNAc(b1-3)Gal(a1-4)Gal(b1-4)GlcNAc(b1-3)Gal(b1-4)Glc
# In short: as §1
# [20] = biological target: GalNAc(b1-3)Gal(a1-6)Gal(b1-4)Glc
# In short: as §1
# GalNAc(b1-3)GalNAc = biological target: GalNAc(b1-3)GalNAc
# In short: as §1
# GalNAc(b1-3)GlcNAc = biological target: GalNAc(b1-3)GlcNAc
# In short: as §1
# GalNAc(b1-4)Gal(b1-4)Glc = biological target: GalNAc(b1-4)Gal(b1-4)Glc
# In short: as §1
binder,measurement,setting,value
B1,glycan array binding signal (z-score),[1],0.042
same,glycan array binding signal (z-score),[2],-0.05
same,glycan array binding signal (z-score),[3],-0.085
same,glycan array binding signal (z-score),[4],-0.087
same,glycan array binding signal (z-score),[5],-0.124
same,glycan array binding signal (z-score),[6],-0.086
same,glycan array binding signal (z-score),[7],-0.115
same,glycan array binding signal (z-score),[8],-0.156
same,glycan array binding signal (z-score),[9],-0.016
same,glycan array binding signal (z-score),[10],-0.072
same,glycan array binding signal (z-score),[11],-0.122
same,glycan array binding signal (z-score),Gal(b1-4)GlcNAc6P,-0.091
same,glycan array binding signal (z-score),Gal(b1-6)Gal,0.039
same,glycan array binding signal (z-score),Gal3S(b1-3)GalNAc,7.76
same,glycan array binding signal (z-score),Gal3S(b1-3)GlcNAc,0.192
same,glycan array binding signal (z-score),[12],-0.051
same,glycan array binding signal (z-score),Gal3S(b1-4)Glc,0.7
same,glycan array binding signal (z-score),Gal3S(b1-4)Glc6S,0.468
same,glycan array binding signal (z-score),Gal3S(b1-4)GlcNAc,0.615
same,glycan array binding signal (z-score),[13],-0.092
same,glycan array binding signal (z-score),[14],-0.066
same,glycan array binding signal (z-score),[15],0.694
same,glycan array binding signal (z-score),Gal3S4S(b1-4)GlcNAc,-0.119
same,glycan array binding signal (z-score),Gal3S6S(b1-4)GlcNAc,-0.115
same,glycan array binding signal (z-score),Gal3S6S(b1-4)GlcNAc6S,0.071
same,glycan array binding signal (z-score),Gal4S(b1-4)GlcNAc,-0.143
same,glycan array binding signal (z-score),Gal4S6S(b1-4)GlcNAc,-0.066
same,glycan array binding signal (z-score),Gal6P(b1-4)GlcNAc,-0.061
same,glycan array binding signal (z-score),Gal6S(b1-3)GlcNAc,-0.084
same,glycan array binding signal (z-score),Gal6S(b1-3)GlcNAc6S,-0.113
same,glycan array binding signal (z-score),Gal6S(b1-4)Glc,-0.105
same,glycan array binding signal (z-score),Gal6S(b1-4)Glc6S,-0.085
same,glycan array binding signal (z-score),Gal6S(b1-4)GlcNAc,-0.086
same,glycan array binding signal (z-score),Gal6S(b1-4)GlcNAc6S,-0.14
same,glycan array binding signal (z-score),GalNAc(a1-3)Gal,-0.082
same,glycan array binding signal (z-score),GalNAc(a1-3)GalNAc,-0.015
same,glycan array binding signal (z-score),[16],-0.081
same,glycan array binding signal (z-score),[17],-0.072
same,glycan array binding signal (z-score),GalNAc(b1-3)Gal,-0.125
same,glycan array binding signal (z-score),[18],-0.012
same,glycan array binding signal (z-score),[19],0.002
same,glycan array binding signal (z-score),[20],-0.152
same,glycan array binding signal (z-score),GalNAc(b1-3)GalNAc,-0.063
same,glycan array binding signal (z-score),GalNAc(b1-3)GlcNAc,-0.014
same,glycan array binding signal (z-score),GalNAc(b1-4)Gal(b1-4)Glc,-0.071
